Results reported in PubChem BioAssay AID686979 (National Center for Advancing Translational Sciences (NCATS), 2013).
Out of some 420,000 compounds screened, about 50,000 (12%) were called active. The shares of active, inactive and inconclusive entries below differ from those in the screen. Calls follow the shape of the dose curve; as a rule, active = well fitted inhibition curve with a large enough effect; inconclusive = small, poorly fitted or top-dose-only effect; inactive = flat fitted curve, though single readings scatter. Potencies of inconclusive entries are left out as doubtful fits.

assay: qHTS for Inhibitors of human tyrosyl-DNA phosphodiesterase 1 (TDP1): qHTS in cells in presence of CPT; conditions: chicken DT40 Tdp1-/-;hTDP1 cells + 20 nM CPT, ATP luminescence, 48 h; activity change, negative = growth inhibition: at 46.2 µM (top of the series); also: nearly all actives have a fitted effect of over 55% in size
Method in brief: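 Chicken DT40 Tdp1-/- cells stably complemented with human TDP1 were seeded at 400 cells/well in medium containing 20 nM camptothecin, exposed to pin-transferred compounds, and grown at 37 °C for at least 48 hr. Viability was read as ATP luminescence.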
% is scaled to controls: 0 for no effect and ±100 for the full control effect; potency is read from the fitted curve at half-maximal effect; tags tell the direction and shape of the fitted curve.

| SMILES | activity change, negative = growth inhibition | Potency |
| --- | --- | --- |
| COc1ccc(NS(=O)(=O)c2cccc(C(=O)N/N=C/c3ccccn3)c2)cc1 | inactive: 7.36% | – |
| CCCS(=O)(=O)c1c(S(=O)(=O)CCC)c2c(N)cccn2c1C(=O)c1ccc(OC)cc1 | inactive: -23.2% | – |
| CC(Oc1cccc(Cl)c1)C(=O)N1CCCN(C)CC1 (stereo unspecified) | inactive: 0.347% | – |
| Cc1ccc(C(=O)C2COC(=O)C2)cc1 (stereo unspecified) | – | inconclusive [inhibitor, single point] |
| CCN(CC)S(=O)(=O)c1ccc(N2CCN(S(=O)(=O)c3ccc4c(c3)OCCO4)CC2)nc1 | – | active: 20.6 µM |
| C[C@@H]1CN(C(=O)c2nc3ccc(Cl)cn3c2CN2CCc3sccc3C2)C[C@H](C)O1 | – | inconclusive [inhibitor, single point] |
| Cc1ccc(-c2c[n+](CC(=O)Nc3ccccc3C)c3n2CCC3)cc1 | – | inconclusive [inhibitor, single point] |
| CCc1cccc(CC)c1NC(=O)NC1CCCCC1 | inactive: -6.32% | – |
| CCc1cc(-c2nnn(CCC3COCCO3)c2CC)ccc1-c1cn(Cc2ccccc2)nn1 (stereo unspecified) | – | active: 16.4 µM |
| CCOC(=O)c1c(C)[nH]c(C)c1S(=O)(=O)N1c2ccccc2CC1C (stereo unspecified) | inconclusive: -31% [inhibitor] | – |
| COc1ccc(NC(=O)C2(C)CCN2C(=O)C(C)C)cc1F (stereo unspecified) | inactive: -17.9% | – |
| Cc1ccc(-c2csc(N3CCN(c4cc5c(cc4Cl)nc(C)n5CCN4CCCCC4)CC3)n2)cc1 | – | inconclusive [inhibitor, single point] |
| O=S(=O)(c1ccc(Oc2ccc3c(c2)OCO3)c(S(=O)(=O)N2CCOCC2)c1)N1CCOCC1 | – | active: 0.891 µM |
| FC(F)(F)c1ccccc1/C=N/n1c(C2CCCCC2)n[nH]c1=S | inactive: -22.7% | – |
| Cc1ccc(OCC(=O)Nn2c(C)nc3ccccc3c2=O)c(C(C)C)c1 | – | inconclusive [inhibitor, single point] |
| Cc1ccc(-c2ccc(CN3C(C(C)C)C(=O)N(Cc4cn(CCC5OCCO5)nn4)CCS3(=O)=O)cc2)c(C)c1 (stereo unspecified) | – | active: 9.2 µM |
| O=C(O)c1ccccc1C(=O)c1ccc(F)c(F)c1 | inactive: -3.96% | – |
| O=C(C[C@H]1C[C@H]2c3cc(NS(=O)(=O)c4ccc(F)cc4)ccc3O[C@H]2[C@H](CO)O1)NCc1cc(F)ccc1F | – | active: 16.4 µM |
| COc1ccccc1C(=O)N1CCN(c2cccc(C(F)(F)F)c2)CC1 | – | active: 10.3 µM |
| CCCCOC(=O)Cn1c(=N)n(CCC)c2ccccc21 | inactive: 0.294% | – |
| Cc1cccc(N(C(=O)c2snc(C(N)=O)c2N)C(C(=O)NCC2CCCO2)c2c[nH]c3ccccc23)c1 (stereo unspecified) | – | inconclusive [inhibitor, single point] |
